# Source: the supplement of paper PMC8728848
# This is one part of the list.
# B1: OrfX (Escherichia coli), Q9X4B6_ECOLX (protein)
# chain: MIKIARIAVTLGLLSSLGAQAYAAGLVVNDNDLRNDLAWLSDRGVIHLSLSTWPLSQEEIARALKKAKPSYSSEQVVLARINQRLSALKADFRVTGYTSTDQPGTPQGFGQTQPADNSLGLAFNNSGEWWDVHLQGNVEGGERISNGSRFNANGAYGAVKFWNQWLSFGQVPQWWGPGYEGSLIRGDAMRPMTGFLMQRAEQAAPETWWLRWVGPWQYQISASQMNQYTAVPHAKIIGGRFTFTPFQSLELGASRIMQWGGEGRPQSFSSFWDGFTGHDNTGTDNEPGNQLAGFDFKFKLEPTLGWPVSFYGQMVGEDESGYLPSANMFLGGVEGHHGWGKDTVNWYVEAHDTRTNMSRTNYSYTHHIYKDGYYQQGYPLGDAMGGDGQLIAGKVELITEDNQRWSTRLVYAKVNPENQSINKAFPHADTLKGLQLGWSGDVYQSVRLNTSLWYTNANNSDSDDVGASAGIEIPFSL
# Legend:
# Test in all cases: glycan array binding signal (z-score within array); higher = stronger binding
# Details in all cases: glycan notation: IUPAC condensed, linker removed
# Fuc(a1-2)Gal = biological target: Fuc(a1-2)Gal
# How it was run: (§1)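 Glycan array binding is given as a within-array Z-score, which can be read as non-binding when negative. The arrays, 3228 of them, came from the Consortium for Functional Glycomics database and were retained only where the protein sequence was available. Z-scores were averaged across arrays of the same protein sequence at different concentrations or buffers and across linkers.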
# Fuc(a1-2)Gal(b1-3)GalNAc = biological target: Fuc(a1-2)Gal(b1-3)GalNAc
# How it was run: as §1
# [1] = biological target: Fuc(a1-2)Gal(b1-3)GalNAc(a1-3)[Fuc(a1-2)]Gal(b1-4)Glc
# How it was run: as §1
# [2] = biological target: Fuc(a1-2)Gal(b1-3)GalNAc(a1-3)[Fuc(a1-2)]Gal(b1-4)GlcNAc
# How it was run: as §1
# [3] = biological target: Fuc(a1-2)Gal(b1-3)GalNAc(b1-3)Gal
# How it was run: as §1
# [4] = biological target: Fuc(a1-2)Gal(b1-3)GalNAc(b1-3)Gal(a1-4)Gal(b1-4)Glc
# How it was run: as §1
# [5] = biological target: Fuc(a1-2)Gal(b1-3)GalNAc(b1-4)[Neu5Ac(a2-3)]Gal(b1-4)Glc
# How it was run: as §1
# Fuc(a1-2)Gal(b1-3)GlcNAc = biological target: Fuc(a1-2)Gal(b1-3)GlcNAc
# How it was run: as §1
# [6] = biological target: Fuc(a1-2)Gal(b1-3)GlcNAc(b1-2)Man(a1-3)[Fuc(a1-2)Gal(b1-3)GlcNAc(b1-2)Man(a1-6)]Man(b1-4)GlcNAc(b1-4)GlcNAc
# How it was run: as §1
# [7] = biological target: Fuc(a1-2)Gal(b1-3)GlcNAc(b1-2)Man(a1-3)[Fuc(a1-2)Gal(b1-3)GlcNAc(b1-2)Man(a1-6)]Man(b1-4)GlcNAc(b1-4)[Fuc(a1-6)]GlcNAc
# How it was run: as §1
# [8] = biological target: Fuc(a1-2)Gal(b1-3)GlcNAc(b1-3)Gal(b1-4)Glc
# How it was run: as §1
# [9] = biological target: Fuc(a1-2)Gal(b1-3)GlcNAc(b1-3)GalNAc
# How it was run: as §1
# [10] = biological target: Fuc(a1-2)Gal(b1-3)GlcNAc(b1-3)[Fuc(a1-2)Gal(b1-3)GlcNAc(b1-6)]GalNAc
# How it was run: as §1
# [11] = biological target: Fuc(a1-2)Gal(b1-3)GlcNAc(b1-3)[Fuc(a1-3)[Gal(b1-4)]GlcNAc(b1-6)]Gal(b1-4)Glc
# How it was run: as §1
# [12] = biological target: Fuc(a1-2)Gal(b1-3)GlcNAc(b1-3)[Gal(b1-4)GlcNAc(b1-6)]Gal(b1-4)Glc
# How it was run: as §1
# [13] = biological target: Fuc(a1-2)Gal(b1-3)GlcNAc(b1-3)[Neu5Ac(a2-6)Gal(b1-4)GlcNAc(b1-6)]Gal(b1-4)Glc
# How it was run: as §1
# [14] = biological target: Fuc(a1-2)Gal(b1-3)GlcNAc6S
# How it was run: as §1
# [15] = biological target: Fuc(a1-2)Gal(b1-3)[Fuc(a1-4)]GlcNAc
# How it was run: as §1
# [16] = biological target: Fuc(a1-2)Gal(b1-3)[Fuc(a1-4)]GlcNAc(b1-2)Man(a1-3)[Fuc(a1-2)Gal(b1-3)[Fuc(a1-4)]GlcNAc(b1-2)Man(a1-6)]Man(b1-4)GlcNAc(b1-4)GlcNAc
# How it was run: as §1
# [17] = biological target: Fuc(a1-2)Gal(b1-3)[Fuc(a1-4)]GlcNAc(b1-2)Man(a1-6)[Fuc(a1-2)Gal(b1-3)[Fuc(a1-4)]GlcNAc(b1-2)Man(a1-3)]Man(b1-4)GlcNAc(b1-4)[Fuc(a1-6)]GlcNAc
# How it was run: as §1
# [18] = biological target: Fuc(a1-2)Gal(b1-3)[Fuc(a1-4)]GlcNAc(b1-3)[Fuc(a1-3)[Gal(b1-4)]GlcNAc(b1-6)]Gal(b1-4)Glc
# How it was run: as §1
# [19] = biological target: Fuc(a1-2)Gal(b1-3)[Fuc(a1-4)]GlcNAc(b1-3)[Gal(b1-4)GlcNAc(b1-6)]Gal(b1-4)Glc
# How it was run: as §1
# Fuc(a1-2)Gal(b1-4)Glc = biological target: Fuc(a1-2)Gal(b1-4)Glc
# How it was run: as §1
# Fuc(a1-2)Gal(b1-4)Glc6S = biological target: Fuc(a1-2)Gal(b1-4)Glc6S
# How it was run: as §1
# Fuc(a1-2)Gal(b1-4)GlcNAc = biological target: Fuc(a1-2)Gal(b1-4)GlcNAc
# How it was run: as §1
# [20] = biological target: Fuc(a1-2)Gal(b1-4)GlcNAc(b1-2)Man
# How it was run: as §1
# [21] = biological target: Fuc(a1-2)Gal(b1-4)GlcNAc(b1-2)Man(a1-3)[Fuc(a1-2)Gal(b1-4)GlcNAc(b1-2)Man(a1-6)]Man(b1-4)GlcNAc(b1-4)GlcNAc
# How it was run: as §1
# [22] = biological target: Fuc(a1-2)Gal(b1-4)GlcNAc(b1-2)Man(a1-3)[Fuc(a1-2)Gal(b1-4)GlcNAc(b1-2)Man(a1-6)]Man(b1-4)GlcNAc(b1-4)[Fuc(a1-6)]GlcNAc
# How it was run: as §1
# [23] = biological target: Fuc(a1-2)Gal(b1-4)GlcNAc(b1-2)[Fuc(a1-2)Gal(b1-4)GlcNAc(b1-4)]Man(a1-3)[Fuc(a1-2)Gal(b1-4)GlcNAc(b1-2)Man(a1-6)]Man(b1-4)GlcNAc(b1-4)GlcNAc
# How it was run: as §1
# [24] = biological target: Fuc(a1-2)Gal(b1-4)GlcNAc(b1-3)Gal(b1-4)GlcNAc
# How it was run: as §1
binder,measurement,setting,value
B1,glycan array binding signal (z-score),Fuc(a1-2)Gal,-0.19
same,glycan array binding signal (z-score),Fuc(a1-2)Gal(b1-3)GalNAc,-0.156
same,glycan array binding signal (z-score),[1],-0.28
same,glycan array binding signal (z-score),[2],-0.271
same,glycan array binding signal (z-score),[3],-0.037
same,glycan array binding signal (z-score),[4],-0.087
same,glycan array binding signal (z-score),[5],-0.21
same,glycan array binding signal (z-score),Fuc(a1-2)Gal(b1-3)GlcNAc,-0.12
same,glycan array binding signal (z-score),[6],-0.1
same,glycan array binding signal (z-score),[7],-0.201
same,glycan array binding signal (z-score),[8],-0.116
same,glycan array binding signal (z-score),[9],-0.344
same,glycan array binding signal (z-score),[10],-0.33
same,glycan array binding signal (z-score),[11],-0.181
same,glycan array binding signal (z-score),[12],-0.005
same,glycan array binding signal (z-score),[13],-0.225
same,glycan array binding signal (z-score),[14],0.028
same,glycan array binding signal (z-score),[15],-0.033
same,glycan array binding signal (z-score),[16],1.12
same,glycan array binding signal (z-score),[17],0.679
same,glycan array binding signal (z-score),[18],-0.249
same,glycan array binding signal (z-score),[19],-0.181
same,glycan array binding signal (z-score),Fuc(a1-2)Gal(b1-4)Glc,-0.225
same,glycan array binding signal (z-score),Fuc(a1-2)Gal(b1-4)Glc6S,-0.115
same,glycan array binding signal (z-score),Fuc(a1-2)Gal(b1-4)GlcNAc,-0.223
same,glycan array binding signal (z-score),[20],-0.049
same,glycan array binding signal (z-score),[21],-0.214
same,glycan array binding signal (z-score),[22],-0.113
same,glycan array binding signal (z-score),[23],-0.469
same,glycan array binding signal (z-score),[24],-0.191
